Consider 9 variants from the supplement of paper PMC12217912.

The chains are these.
B1: TEV protease; numbered along this chain (parent)
chain: MGESLFKGPRDYNPISSSICHLTNESDGHTTSLYGIGFGPFIITNKHLFRRNNGTLVVQSLHGVFKVKDTTTLQQHLVDGRDMIIIRMPKDFPPFPQKLKFREPQREERICLVTTNFQTKSMSSMVSDTSCTFPSGDGIFWKHWIQTKDGQCGSPLVSTRDGFIVGIHSASNFTNTNNYFTSVPKNFMELLTNQEAQQWVSGWRLNADSVLWGGHKVFMVKPEEPFQPVKEATQL

Some of the results follow. The full chains were built here from the parent and the listed change. Values near 0.05 are background.

In this assay the parent is B1. The assay is described as follows: raw area under fraction-flipped curve 0-4 h after induction (AUC4h, not background-subtracted), DNA-recorder readout of cleavage of the substrate (dimensionless); higher = more cleavage of the substrate by the protease variant. Conditions: temperature: 34 °C; time window: 0-4 h after rhamnose induction. Here is the method:
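In vivo DNA recorder in E. coli TOP10(DE3) ΔrhaA at 34 °C. Each TEVp single-site mutant (parent TEVp 0) is paired with a single-site variant of the 7-mer TEVs (canonical ENLYFQ|S). The substrate sits between flexible linkers in a Bxb1-sfGFP-TEVs-SsrA fusion, so cleavage stabilises Bxb1 and speeds flipping of a recombination array, read by NGS. The value is the raw area under the fraction-flipped curve over 0-4 h after rhamnose induction (AUC4h), with ≥20 reads per time point. It is not background-subtracted; inactive controls average about 0.047.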
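Also: Bxb1 expression induced with 0.2% (w/v) L-rhamnose at OD600 near 0.5, cultures sampled hourly, flipped fraction per protease–substrate barcode pair counted by paired-end Illumina sequencing.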

As to MGESLFKGPRDYNPISSSICHLTNESDGHTTSLYGIGFGPFIITNKHLFRRNNGTLVVQSLHGVFKVKDTTTLQQHLVDGRDMIIIRMPKDFPPFPQKLKFREPQREERICLVTTNFQTKSMSSMVSDTSCTFPSGDGIFWKHWIQTKDGQCGSPLVSTRDGFIVGIHSASNFTNTNNYFTSVPKNFMELLTNQEAQQWVSGWCLNADSVLWGGHKVFMVKPEEPFQPVKEATQL [R204C], the “area with substrate ENLYAQS” value amounted to 0.0655, the “area with substrate ENLYCQS” value is 0.0912, the “area with substrate ENLYDQS” value came out at 0.0608 and the “area with substrate ENLYEQS” value came to 0.0651. Further, the “area with substrate ENLYGQS” value amounted to 0.0682, the “area with substrate ENLYHQS” value stood at 0.069, the “area with substrate ENLYIQS” value is 0.142 and the “area with substrate ENLYKQS” value is 0.0616. Besides, the “area with substrate ENLYMQS” value was 0.0912, the “area with substrate ENLYNQS” value was 0.094, the “area with substrate ENLYPQS” value was found to be 0.0858 and the “area with substrate ENLYQQS” value came to 0.0455. The “area with substrate ENLYRQS” value came out at 0.0653, the “area with substrate ENLYSQS” value was 0.0776, the “area with substrate ENLYVQS” value came to 0.129 and the “area with substrate ENLYWQS” value was 0.0939. In addition, the “area with substrate ENLYYQS” value was found to be 0.075.
As to MGESLFKGPRDYNPISSSICHLTNESDGHTTSLYGIGFGPFIITNKHLFRRNNGTLVVQSLHGVFKVKDTTTLQQHLVDGRDMIIIRMPKDFPPFPQKLKFREPQREERICLVTTNFQTKSMSSMVSDTSCTFPSGDGIFWKHWIQTKDGQCGSPLVSTRDGFIVGIHSASNFTNTNNYFTSVPKNFMELLTNQEAQQLVSGWRLNADSVLWGGHKVFMVKPEEPFQPVKEATQL [W199L], the “area with substrate ENLYAQS” value came out at 0.0376, the “area with substrate ENLYDQS” value worked out at 0.0768, the “area with substrate ENLYGQS” value came to 0.0679 and the “area with substrate ENLYIQS” value is 0.0767. Besides, the “area with substrate ENLYMQS” value was 0.0725, the “area with substrate ENLYQQS” value was determined as 0.0694 and the “area with substrate ENLYRQS” value is 0.0513.
MGESLFKGPRDYNPISSSICHLTNESDGHTTSLYGIGFGPFIITNKHLFRRNNGTLVVQSLHGVFKVKDTTTLQQHLVDGRDMIIIRMPKDFPPFPQKLKFREPQREERICLVTTNFQTKSMSSMVSDTSCTFPSGDGIFWKHWIQTKDGQCGSPLVSTRDGFIVGIHSASNFTNTNNYFTSVPKNFMELLTNQEAQQRVSGWRLNADSVLWGGHKVFMVKPEEPFQPVKEATQL [W199R]: the “area with substrate ENLYAQS” value amounted to 0.0676, the “area with substrate ENLYCQS” value was 0.0577, the “area with substrate ENLYDQS” value was 0.0574 and the “area with substrate ENLYEQS” value came out at 0.0665. Moreover, the “area with substrate ENLYGQS” value was found to be 0.0643, the “area with substrate ENLYHQS” value is 0.0569, the “area with substrate ENLYIQS” value stood at 0.0497 and the “area with substrate ENLYKQS” value worked out at 0.0612. For the same variant, the “area with substrate ENLYLQS” value amounted to 0.0543, the “area with substrate ENLYMQS” value came out at 0.0572, the “area with substrate ENLYNQS” value worked out at 0.0733 and the “area with substrate ENLYPQS” value was 0.0583. The “area with substrate ENLYQQS” value stood at 0.0549, the “area with substrate ENLYRQS” value was 0.0569, the “area with substrate ENLYTQS” value turned out to be 0.0664 and the “area with substrate ENLYVQS” value stood at 0.0452. In addition, the “area with substrate ENLYWQS” value was determined as 0.0592.
MGESLFKGPRDYNPISSSICHLTNESDGHTTSLYGIGFGPFIITNKHLFRRNNGTLVVQSLHGVFKVKDTTTLQQHLVDGRDMIIIRMPKDFPPFPQKLKFREPQREERICLVTTNFQTKSMSSMVSDTSCTFPSGDGIFWKHWIQTKDGQCGSPLVSTRDGFIVGIHSASNFTNTNNYFTSVPKNFMELLTNQEAQQWVSGWRLNADSQLWGGHKVFMVKPEEPFQPVKEATQL [V210Q]: the “area with substrate ENLYAQS” value was 0.124, the “area with substrate ENLYCQS” value worked out at 0.0887, the “area with substrate ENLYDQS” value worked out at 0.0802 and the “area with substrate ENLYEQS” value worked out at 0.0833. The “area with substrate ENLYGQS” value came to 0.058, the “area with substrate ENLYHQS” value worked out at 0.0653, the “area with substrate ENLYIQS” value was 0.115 and the “area with substrate ENLYKQS” value stood at 0.044. Besides, the “area with substrate ENLYMQS” value was 0.078, the “area with substrate ENLYNQS” value came out at 0.0581, the “area with substrate ENLYPQS” value amounted to 0.0541 and the “area with substrate ENLYQQS” value was found to be 0.0635. In addition, the “area with substrate ENLYRQS” value was found to be 0.0632, the “area with substrate ENLYTQS” value is 0.0696, the “area with substrate ENLYWQS” value turned out to be 0.0675 and the “area with substrate ENLYYQS” value stood at 0.0795.
Regarding MGESLFKGPRDYNPISSSICHLTNESDGHTTSLYGIGFGPFIITNKHLFRRNNGTLVVQSLHGVFKVKDTTTLQQHLVDGRDMIIIRMPKDFPPFPQKLKFREPQREERICLVTTNFQTKSMSSMVSDTSCTFPSGDGIFWKHWIQTKDGQCGSPLVSTRDGFIVGIHSASNFTNTNNYFTSVPKNFMELLTNQEAQQWVSGWRLNADSLLWGGHKVFMVKPEEPFQPVKEATQL [V210L], the “area with substrate ENLYAQS” value worked out at 0.0681, the “area with substrate ENLYCQS” value came out at 0.0573, the “area with substrate ENLYDQS” value was determined as 0.0706 and the “area with substrate ENLYEQS” value was determined as 0.0579. Also, the “area with substrate ENLYGQS” value was 0.0483, the “area with substrate ENLYHQS” value is 0.0644, the “area with substrate ENLYIQS” value stood at 0.104 and the “area with substrate ENLYKQS” value amounted to 0.0692. Moreover, the “area with substrate ENLYMQS” value turned out to be 0.0848, the “area with substrate ENLYNQS” value amounted to 0.0615, the “area with substrate ENLYPQS” value turned out to be 0.0726 and the “area with substrate ENLYQQS” value was 0.0394. The “area with substrate ENLYSQS” value amounted to 0.0671, the “area with substrate ENLYWQS” value is 0.0795 and the “area with substrate ENLYYQS” value came out at 0.0718.
With MGESLFKGPRDYNPISSSICHLTNESDGHTTSLYGIGFGPFIITNKHLFRRNNGTLVVQSLHGVFKVKDTTTLQQHLVDGRDMIIIRMPKDFPPFPQKLKFREPQREERICLVTTNFQTKSMSSMVSDTSCTFPSGDGIFWKHWIQTKDGQCGSPLVSTRDGFIVGIHSASNFTNTNNYFTSVPKNFMELLTNQEAQQWVSGWRLNADSSLWGGHKVFMVKPEEPFQPVKEATQL [V210S], the “area with substrate ENLYAQS” value was determined as 0.0829, the “area with substrate ENLYDQS” value came out at 0.0485, the “area with substrate ENLYEQS” value is 0.0673 and the “area with substrate ENLYGQS” value turned out to be 0.0781. Also, the “area with substrate ENLYHQS” value came out at 0.0618, the “area with substrate ENLYIQS” value stood at 0.135, the “area with substrate ENLYKQS” value came out at 0.0548 and the “area with substrate ENLYMQS” value worked out at 0.0616. Also, the “area with substrate ENLYNQS” value was 0.0549, the “area with substrate ENLYPQS” value was determined as 0.0395, the “area with substrate ENLYQQS” value amounted to 0.0646 and the “area with substrate ENLYRQS” value was 0.0504. For the same variant, the “area with substrate ENLYSQS” value was determined as 0.0558, the “area with substrate ENLYTQS” value was determined as 0.0659, the “area with substrate ENLYWQS” value worked out at 0.108 and the “area with substrate ENLYYQS” value is 0.0583.
With MGESLFKGPRDYNPISSSICHLTNESDGHTTSLYGIGFGPFIITNKHLFRRNNGTLVVQSLHGVFKVKDTTTLQQHLVDGRDMIIIRMPKDFPPFPQKLKFREPQREERICLVTTNFQTKSMSSMVSDTSCTFPSGDGIFWKHWIQTKDGQCGSPLVSTRDGFIVGIHSASNFTNTNNYFTSVPKNFMELLTNQEAQEWVSGWRLNADSVLWGGHKVFMVKPEEPFQPVKEATQL [Q198E], the “area with substrate ENLYAQS” value was 0.0858, the “area with substrate ENLYEQS” value came to 0.0723, the “area with substrate ENLYGQS” value worked out at 0.0593 and the “area with substrate ENLYHQS” value turned out to be 0.0631. Also, the “area with substrate ENLYIQS” value was 0.142, the “area with substrate ENLYKQS” value came to 0.0562, the “area with substrate ENLYMQS” value is 0.105 and the “area with substrate ENLYNQS” value amounted to 0.0703. Also, the “area with substrate ENLYPQS” value turned out to be 0.0657, the “area with substrate ENLYQQS” value is 0.0617, the “area with substrate ENLYRQS” value worked out at 0.0702 and the “area with substrate ENLYVQS” value worked out at 0.16.
Regarding MGESLFKGPRDYNPISSSICHLTNESDGHTTSLYGIGFGPFIITNKHLFRRNNGTLVVQSLHGVFKVKDTTTLQQHLVDGRDMIIIRMPKDFPPFPQKLKFREPQREERICLVTTNFQTKSMSSMVSDTSCTFPSGDGIFWKHWIQTKDGQCGSPLVSTRDGFIVGIHSASNFTNTNNYFTSVPKNFMELLTNQEAQRWVSGWRLNADSVLWGGHKVFMVKPEEPFQPVKEATQL [Q198R], the “area with substrate ENLYAQS” value is 0.0451, the “area with substrate ENLYCQS” value stood at 0.0887, the “area with substrate ENLYDQS” value came to 0.066 and the “area with substrate ENLYEQS” value came out at 0.0828. Also, the “area with substrate ENLYGQS” value is 0.102, the “area with substrate ENLYHQS” value turned out to be 0.071, the “area with substrate ENLYKQS” value is 0.0611 and the “area with substrate ENLYNQS” value is 0.0672.
Consider MGESLFKGPRDYNPISSSICHLTNESDGHTTSLYGIGFGPFIITNKHLFRRNNGTLVVQSLHGVFKVKDTTTLQQHLVDGRDMIIIRMPKDFPPFPQKLKFREPQREERICLVTTNFQTKSMSSMVSDTSCTFPSGDGIFWKHWIQTKDGQCGSPLVSTRDGFIVGIHSASNFTNTNNYFTSVPKNFMELLTNQEAQQWVSGWRLSADSVLWGGHKVFMVKPEEPFQPVKEATQL [N206S], for which the “area with substrate ENLYAQS” value was determined as 0.0723, the “area with substrate ENLYCQS” value was 0.119, the “area with substrate ENLYDQS” value turned out to be 0.0623 and the “area with substrate ENLYHQS” value stood at 0.0614. In addition, the “area with substrate ENLYKQS” value was 0.0651, the “area with substrate ENLYLQS” value came out at 0.0969, the “area with substrate ENLYMQS” value came to 0.0824 and the “area with substrate ENLYQQS” value was found to be 0.0648. The “area with substrate ENLYVQS” value worked out at 0.155, the “area with substrate ENLYWQS” value is 0.0837 and the “area with substrate ENLYYQS” value was found to be 0.0507.
